{"source": "PubChem BioAssay AID686978", "about": "(National Center for Advancing Translational Sciences (NCATS), 2013)", "note": "“And” between values parts separate entries of the source, which are not always exact repeats. Identical values can stand only once. Hit rate of the full screen: of about 420,000 compounds, about 64,000 (15%) were called active. The inconclusive results got no clear call from the source; some entries with a clear call stand among them for comparison. The call rests on the fitted dose curve; in most records, active means well fitted inhibition curve with a large enough effect; inconclusive means small, poorly fitted or top-dose-only effect; inactive means flat fitted curve, though single readings scatter. Potencies beside an inconclusive call are fits to weak or partial responses and may not hold up. On the % scale 0 is the no-effect control and ±100 the full control effect; potency means the concentration at half of the fitted maximal effect; tags describe the fitted curve by direction and shape."}
{"assay": "qHTS for Inhibitors of human tyrosyl-DNA phosphodiesterase 1 (TDP1): qHTS in cells in absence of CPT; further: nearly all actives have a fitted effect of over 55% in size", "conditions": "DT40 Tdp1-/- hTDP1 cells, no CPT, ATP luminescence, 48 h; activity change, negative = growth inhibition: at 46.2 µM (top of the series) unless noted", "outline": "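Seeded 400 DT40-hTDP1 cells/well (vehicle DMSO, no 20 nM CPT); pinned compounds; ≥48 hr at 37 °C; CellTiter-Glo luminescence as viability measure.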"}
{"smiles": "COc1ccc(C2CC(=O)c3cc(OC)ccc3O2)cc1", "note": "(centres undefined)", "Potency": "inconclusive: 16.4 µM [inhibitor, single point]"}
{"smiles": "COCCNc1c2c(nc3c(-c4ccccc4)c(C)nn13)CCCC2", "Potency": "inconclusive: 35.5 µM [inhibitor, single point]"}
{"smiles": "CCn1c(C(=O)NCc2ccc(F)cc2)cc2oc3ccccc3c21", "Potency": "inconclusive: 29.1 µM [inhibitor, single point]"}
{"smiles": "COc1cc(CN2CCC(C(=O)NC(C)(C)C)CC2)ccc1OCc1ccccc1", "Potency": "inconclusive: 29.1 µM [inhibitor, single point]"}
{"smiles": "CCc1noc(C)c1C(=O)NNC(=O)c1ccccc1F", "Potency": "inconclusive: 0.0065 µM [inhibitor, full curve]"}
{"smiles": "CCN1CCN(C(=O)c2cc(-c3ccc(Cl)s3)nc3ccccc23)CC1", "Potency": "inconclusive: 23.1 µM [inhibitor, single point]"}
{"smiles": "COc1ccccc1C(=O)C1CCCN(Cc2ccc3c(c2)OCCO3)C1", "note": "(centres undefined)", "Potency": "inconclusive: 25.9 µM [inhibitor, single point]"}
{"smiles": "CSc1ccc(C(=S)N2CCN(C)CC2)cc1", "activity change, negative = growth inhibition": "inconclusive: -32.7% [inhibitor]"}
{"smiles": "COc1cccc(-n2nnnc2SCC(=O)Nc2ccccc2OC)c1", "Potency": "inactive"}
{"smiles": "COc1ccccc1Nc1ncnc2c1cnn2-c1cccc(C)c1", "Potency": "inconclusive: 11.6 µM [inhibitor, single point]"}
{"smiles": "CC12CN3CC(c4ccccc4)(CN(C1)C3c1ccc(O)cc1)C2=O", "note": "(centres undefined)", "Potency": "inconclusive: 29.1 µM [inhibitor, single point]"}
{"smiles": "CCOC(=O)N1CCC(NC(=O)c2cc(C(=O)Nc3ccc(OCC)cc3)ccc2CO)CC1", "Potency": "inconclusive: 17.8 µM [inhibitor, partial curve]"}
{"smiles": "CCOc1ccc(NC(=O)CC2C(=O)N(c3ccc(F)cc3)C(=O)N2Cc2ccc(OC)c(OC)c2)cc1", "note": "(centres undefined)", "Potency": "inconclusive: 25.9 µM [inhibitor, single point]"}
{"smiles": "O=C(Cc1coc2ccc3ccccc3c12)NCc1cccs1", "Potency": "inconclusive: 29.1 µM [inhibitor, single point]"}
{"smiles": "COC(=O)c1c(NC(=O)C(C)Oc2ccc(Cl)c(C)c2)sc(C)c1C", "note": "(centres undefined)", "Potency": "inconclusive: 16.4 µM [inhibitor, single point]"}
{"smiles": "O=[N+]([O-])c1ccc(-c2nnc3cccc(Cl)n23)cc1", "Potency": "inconclusive: 10.3 µM [inhibitor, partial curve]"}
{"smiles": "CCOC(=O)N1CCN(C(=O)C(=O)c2cn(CC(=O)N3CCCCCC3)c3ccccc23)CC1", "Potency": "inconclusive: 14.6 µM [inhibitor, partial curve]"}
{"smiles": "COC(=O)CSC1=C(C#N)C(c2ccsc2)CC(=O)N1", "note": "(centres undefined)", "Potency": "inconclusive: 23.1 µM [inhibitor, single point]"}
{"smiles": "O=C(COC(=O)CC1CC2CCC1C2)Nc1ccc(F)cc1Cl", "note": "(centres undefined)", "Potency": "inconclusive: 20.6 µM [inhibitor, single point]"}
{"smiles": "COc1ccc(S(=O)(=O)NCC(c2cccnc2)N2CCN(c3ccccc3)CC2)cc1C", "note": "(centres undefined)", "Potency": "inconclusive: 23.1 µM [inhibitor, partial curve]"}
{"smiles": "CCOC(=O)c1ccc(N2C(=O)c3n[nH]c(-c4cccs4)c3C2c2ccc(OCC)cc2)cc1", "note": "(centres undefined)", "Potency": "active: 11.6 µM"}
{"smiles": "COc1ccc(CCNc2oc(/C=C/c3cc(OC)c(OC)c(OC)c3)nc2C#N)cc1OC", "Potency": "active: 11.6 µM"}
{"smiles": "Cc1ccc(NC(=O)c2cccc(C(=O)Nc3ccc(C)c(C)c3)n2)cc1C", "Potency": "inconclusive: 9.2 µM [inhibitor, partial curve]"}
{"smiles": "COc1ccc(OC)c(CCNC(=O)CS(=O)(=O)Cc2nc(-c3cccc(Cl)c3)oc2C)c1", "Potency": "inconclusive: 18.4 µM [inhibitor, single point]"}
{"smiles": "Cc1cccc(NC(=O)CN2CCN(C(=O)c3cc(C4CC4)nn3-c3ccccc3)CC2)c1C", "Potency": "inconclusive: 29.1 µM [inhibitor, single point]"}
{"smiles": "COc1cccc(-c2nc(Oc3cccc(C)c3C)c3ccccc3n2)c1O", "Potency": "inconclusive: 10.3 µM [inhibitor, partial curve]"}
{"smiles": "Cc1ccccc1C(=O)NCCNc1ccc([N+](=O)[O-])cc1", "Potency": "inconclusive: 29.1 µM [inhibitor, single point]"}
{"smiles": "CCCNC(=O)NNC(=O)c1cc(-c2ccc3c(c2)OCO3)nc2ccccc12", "Potency": "inconclusive: 20.6 µM [inhibitor, single point]"}
{"smiles": "S=C(Nc1cccc2ccccc12)NN1CCCCCC1", "Potency": "inconclusive: 25.9 µM [inhibitor, single point]"}
{"smiles": "Cc1cc(C(=O)Nc2ccc(Nc3ccccc3)cc2)ccc1[N+](=O)[O-]", "Potency": "active: 4.61 µM"}
{"smiles": "OC(C#CCN1CCCCC1)(c1ccccc1)c1ccccc1", "Potency": "inconclusive: 10.3 µM [inhibitor, single point]"}
{"smiles": "Cc1nc(N)sc1N=Nc1c(C)n(C)n(-c2ccccc2)c1=O", "Potency": "inactive"}
{"smiles": "CCN1C(=O)c2ccccc2S(=O)c2ccc(C(=O)NCc3ccc(OC)cc3)cc21", "note": "(centres undefined)", "Potency": "inconclusive: 25.9 µM [inhibitor, single point] and inconclusive: 29.1 µM [inhibitor, single point]"}
{"smiles": "O=C(NC(NC(=S)N1CCOCC1)C(Cl)(Cl)Cl)c1cccc2ccccc12", "note": "(centres undefined)", "Potency": "inactive"}
{"smiles": "O=C(Nc1ccccc1F)Nc1ccccc1Br", "activity change, negative = growth inhibition": "inconclusive: -33.1% [inhibitor]"}
{"smiles": "Cn1nc(C(C)(C)C)cc1C(=O)N1CCCC(c2cc(C(=O)NCc3ccccc3)no2)C1", "note": "(centres undefined)", "Potency": "active: 14.6 µM"}
{"smiles": "COc1cc(OC)c(Nc2nc3ccccc3c3nncn23)cc1Cl", "Potency": "inactive"}
{"smiles": "O=C(NCCc1ccc(Cl)cc1)c1cnc2sc(N3CCOCC3)nn2c1=O", "Potency": "inactive"}
{"smiles": "Cc1oc(-c2cccc(Cl)c2)nc1CSc1nncn2c1cc1occc12", "Potency": "inactive"}
{"smiles": "CC1=C(Cl)C2=NS(=O)(=O)CCN2C=C1Cl", "Potency": "inactive"}
{"smiles": "CCOc1ccc(-n2c(N)c(C(=O)NCc3ccco3)c3nc4ccccc4nc32)cc1", "Potency": "active: 18.4 µM"}
{"smiles": "O=C(Nc1ccc(N2CCOCC2)c(Cl)c1)C1CCCCC1", "Potency": "active: 16.4 µM"}
{"smiles": "CCCCC1=CC2=C(c3ccco3)C(=O)C(C)(OC(=O)c3ccc(OC)cc3)C(=O)C2=CN1Cc1ccccc1", "note": "(centres undefined)", "Potency": "active: 4.61 µM"}
{"smiles": "Cc1c(Cl)ccc2sc(N3CCN(C(=O)C(C)C)CC3)nc12", "Potency": "active: 6.51 µM"}
